The supplement of paper PMC8728848
This is one part of the list.

Tests used:
Assay in all cases: glycan array binding signal (z-score within array); higher = stronger binding
Settings in all cases: glycan notation: IUPAC condensed, linker removed
GalNAc(b1-3)GalNAc = target: GalNAc(b1-3)GalNAc
In short: (§1)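 From the Consortium for Functional Glycomics database, 3228 arrays were curated, keeping only those whose protein sequence was available. Binding is given as a within-array Z-score averaged across arrays sharing a protein sequence and across linkers. Negative Z-scores can be read as non-binding.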

GalNAc(b1-4)GlcNAc = target: GalNAc(b1-4)GlcNAc
In short: as §1

Glc(a1-4)Glc = target: Glc(a1-4)Glc
In short: as §1

Glc(b1-4)Glc = target: Glc(b1-4)Glc
In short: as §1

Glc(b1-6)Glc = target: Glc(b1-6)Glc
In short: as §1

[1] = target: GlcNAc(b1-2)Gal(b1-3)GalNAc
In short: as §1

GlcNAc(b1-3)Gal = target: GlcNAc(b1-3)Gal
In short: as §1

[2] = target: GlcNAc(b1-3)Gal(b1-3)GalNAc
In short: as §1

GlcNAc(b1-3)Gal(b1-4)Glc = target: GlcNAc(b1-3)Gal(b1-4)Glc
In short: as §1

[3] = target: GlcNAc(b1-3)Gal(b1-4)GlcNAc
In short: as §1

[4] = target: GlcNAc(b1-3)[GlcNAc(b1-6)]GalNAc
In short: as §1

[5] = target: GlcNAc(b1-3)[GlcNAc(b1-6)]GlcNAc(b1-4)GlcNAc
In short: as §1

[6] = target: GlcNAc(b1-4)GlcNAc(b1-4)GlcNAc
In short: as §1

[7] = target: GlcNAc(b1-4)[GlcNAc(b1-6)]GalNAc
In short: as §1

GlcNAc(b1-6)GalNAc = target: GlcNAc(b1-6)GalNAc
In short: as §1

Kdn(a2-3)Gal(b1-3)GlcNAc = target: Kdn(a2-3)Gal(b1-3)GlcNAc
In short: as §1

Kdn(a2-3)Gal(b1-4)GlcNAc = target: Kdn(a2-3)Gal(b1-4)GlcNAc
In short: as §1

[8] = target: Man(a1-2)Man(a1-2)Man(a1-3)Man
In short: as §1

[9] = target: Man(a1-2)Man(a1-2)Man(a1-6)[Man(a1-3)]Man
In short: as §1

Man(a1-2)Man(a1-3)Man = target: Man(a1-2)Man(a1-3)Man
In short: as §1

[10] = target: Man(a1-2)Man(a1-3)[Man(a1-2)Man(a1-6)]Man
In short: as §1

[11] = target: Man(a1-2)Man(a1-3)[Man(a1-2)Man(a1-6)]Man(a1-6)[Man(a1-2)Man(a1-2)Man(a1-3)]Man(b1-4)GlcNAc(b1-4)GlcNAc
In short: as §1

[12] = target: Man(a1-2)Man(a1-3)[Man(a1-2)Man(a1-6)]Man(a1-6)[Man(a1-3)[Man(a1-6)]Man(a1-6)]Man(b1-4)GlcNAc(b1-4)GlcNAc
In short: as §1

[13] = target: Man(a1-2)Man(a1-3)[Man(a1-6)]Man(a1-6)[Man(a1-2)Man(a1-3)]Man(b1-4)GlcNAc(b1-4)GlcNAc
In short: as §1

[14] = target: Man(a1-2)Man(a1-6)[Man(a1-3)]Man(a1-6)[Man(a1-2)Man(a1-2)Man(a1-3)]Man(b1-4)GlcNAc(b1-4)GlcNAc
In short: as §1

Man(a1-3)[Man(a1-6)]Man = target: Man(a1-3)[Man(a1-6)]Man
In short: as §1

[15] = target: Man(a1-3)[Man(a1-6)]Man(a1-6)[Man(a1-3)]Man(b1-4)GlcNAc(b1-4)GlcNAc
In short: as §1

Neu5Ac(a2-3)Gal = target: Neu5Ac(a2-3)Gal
In short: as §1

[16] = target: Neu5Ac(a2-3)Gal(b1-3)GalNAc
In short: as §1

[17] = target: Neu5Ac(a2-3)Gal(b1-3)GalNAc6S
In short: as §1

[18] = target: Neu5Ac(a2-3)Gal(b1-3)GlcNAc
In short: as §1

[19] = target: Neu5Ac(a2-3)Gal(b1-3)[Fuc(a1-4)]GlcNAc
In short: as §1

[20] = target: Neu5Ac(a2-3)Gal(b1-3)[Neu5Ac(a2-3)Gal(b1-4)]GlcNAc
In short: as §1

[21] = target: Neu5Ac(a2-3)Gal(b1-3)[Neu5Ac(a2-6)]GalNAc
In short: as §1

Neu5Ac(a2-3)Gal(b1-4)Glc = target: Neu5Ac(a2-3)Gal(b1-4)Glc
In short: as §1

[22] = target: Neu5Ac(a2-3)Gal(b1-4)GlcNAc
In short: as §1

[23] = target: Neu5Ac(a2-3)Gal(b1-4)GlcNAc(b1-3)Gal(b1-4)GlcNAc
In short: as §1

[24] = target: Neu5Ac(a2-3)Gal(b1-4)GlcNAc(b1-3)Gal(b1-4)GlcNAc(b1-3)Gal(b1-4)GlcNAc
In short: as §1

[25] = target: Neu5Ac(a2-3)Gal(b1-4)GlcNAc6S
In short: as §1

[26] = target: Neu5Ac(a2-3)Gal(b1-4)[Fuc(a1-3)]GlcNAc
In short: as §1

[27] = target: Neu5Ac(a2-3)Gal(b1-4)[Fuc(a1-3)]GlcNAc(b1-3)Gal
In short: as §1

[28] = target: Neu5Ac(a2-3)Gal(b1-4)[Fuc(a1-3)]GlcNAc(b1-3)Gal(b1-4)GlcNAc
In short: as §1

[29] = target: Neu5Ac(a2-3)Gal(b1-4)[Fuc(a1-3)]GlcNAc(b1-3)Gal(b1-4)[Fuc(a1-3)]GlcNAc(b1-3)Gal(b1-4)[Fuc(a1-3)]GlcNAc
In short: as §1

[30] = target: Neu5Ac(a2-3)Gal(b1-4)[Fuc(a1-3)]GlcNAc6S
In short: as §1

[31] = target: Neu5Ac(a2-3)Gal6S(b1-4)GlcNAc
In short: as §1

Neu5Ac(a2-3)GalNAc = target: Neu5Ac(a2-3)GalNAc
In short: as §1

[32] = target: Neu5Ac(a2-3)[GalNAc(b1-4)]Gal(b1-4)Glc
In short: as §1

[33] = target: Neu5Ac(a2-3)[GalNAc(b1-4)]Gal(b1-4)GlcNAc
In short: as §1

[34] = target: Neu5Ac(a2-3)[Neu5Ac(a2-6)]GalNAc
In short: as §1

Neu5Ac(a2-6)Gal = target: Neu5Ac(a2-6)Gal
In short: as §1

Neu5Ac(a2-6)Gal(b1-4)Glc = target: Neu5Ac(a2-6)Gal(b1-4)Glc
In short: as §1

[35] = target: Neu5Ac(a2-6)Gal(b1-4)GlcNAc
In short: as §1

[36] = target: Neu5Ac(a2-6)Gal(b1-4)GlcNAc(b1-3)Gal(b1-4)GlcNAc
In short: as §1

[37] = target: Neu5Ac(a2-6)Gal(b1-4)GlcNAc(b1-3)Gal(b1-4)[Fuc(a1-3)]GlcNAc(b1-3)Gal(b1-4)[Fuc(a1-3)]GlcNAc
In short: as §1

[38] = target: Neu5Ac(a2-6)Gal(b1-4)GlcNAc6S
In short: as §1

Neu5Ac(a2-6)GalNAc = target: Neu5Ac(a2-6)GalNAc
In short: as §1

Neu5Ac(a2-8)Neu5Ac = target: Neu5Ac(a2-8)Neu5Ac
In short: as §1

[39] = target: Neu5Ac(a2-8)Neu5Ac(a2-3)Gal(b1-4)Glc
In short: as §1

[40] = target: Neu5Ac(a2-8)Neu5Ac(a2-3)[GalNAc(b1-4)]Gal(b1-4)Glc
In short: as §1

[41] = target: Neu5Ac(a2-8)Neu5Ac(a2-8)Neu5Ac
In short: as §1

[42] = target: Neu5Ac(a2-8)Neu5Ac(a2-8)Neu5Ac(a2-3)Gal(b1-4)Glc
In short: as §1

[43] = target: Neu5Ac(a2-8)Neu5Ac(a2-8)Neu5Ac(a2-3)[GalNAc(b1-4)]Gal(b1-4)Glc
In short: as §1

Neu5Ac(b1-6)GalNAc = target: Neu5Ac(b1-6)GalNAc
In short: as §1

[44] = target: Neu5Ac(b2-6)Gal(b1-4)GlcNAc
In short: as §1

[45] = target: Neu5Ac9Ac(a2-6)Gal(b1-4)GlcNAc
In short: as §1

[46] = target: Neu5Gc(a2-3)Gal(b1-3)GlcNAc
In short: as §1

[47] = target: Neu5Gc(a2-3)Gal(b1-3)[Fuc(a1-4)]GlcNAc
In short: as §1

Neu5Gc(a2-3)Gal(b1-4)Glc = target: Neu5Gc(a2-3)Gal(b1-4)Glc
In short: as §1

[48] = target: Neu5Gc(a2-3)Gal(b1-4)GlcNAc
In short: as §1

[49] = target: Neu5Gc(a2-3)Gal(b1-4)[Fuc(a1-3)]GlcNAc
In short: as §1

[50] = target: Neu5Gc(a2-6)Gal(b1-4)GlcNAc
In short: as §1

Neu5Gc(a2-6)GalNAc = target: Neu5Gc(a2-6)GalNAc
In short: as §1

B1: RegIIIgamma (Mus musculus), O09049 (protein)
chain: MLPRITITIMSWMLLSCLMLLSQVQGEVAKKDAPSSRSSCPKGSRAYGSYCYALFSVSKNWYDADMACQKRPSGHLVSVLSGAEASFLSSMIKSSGNSGQYVWIGLHDPTLGYEPNRGGWEWSNADVMNYINWETNPSSSSGNHCGTLSRASGFLKWRENYCNLELPYVCKFKA
glycan array binding signal (z-score) (GalNAc(b1-3)GalNAc): -0.279
glycan array binding signal (z-score) (GalNAc(b1-4)GlcNAc): -0.248
glycan array binding signal (z-score) (Glc(a1-4)Glc): -0.187
glycan array binding signal (z-score) (Glc(b1-4)Glc): -0.236
glycan array binding signal (z-score) (Glc(b1-6)Glc): -0.213
glycan array binding signal (z-score) [1]: -0.266
glycan array binding signal (z-score) (GlcNAc(b1-3)Gal): -0.266
glycan array binding signal (z-score) [2]: -0.218
glycan array binding signal (z-score) (GlcNAc(b1-3)Gal(b1-4)Glc): -0.258
glycan array binding signal (z-score) [3]: -0.278
glycan array binding signal (z-score) [4]: -0.28
glycan array binding signal (z-score) [5]: -0.25
glycan array binding signal (z-score) [6]: -0.185
glycan array binding signal (z-score) [7]: -0.271
glycan array binding signal (z-score) (GlcNAc(b1-6)GalNAc): -0.303
glycan array binding signal (z-score) (Kdn(a2-3)Gal(b1-3)GlcNAc): -0.064
glycan array binding signal (z-score) (Kdn(a2-3)Gal(b1-4)GlcNAc): 0.423
glycan array binding signal (z-score) [8]: 0.028
glycan array binding signal (z-score) [9]: -0.256
glycan array binding signal (z-score) (Man(a1-2)Man(a1-3)Man): -0.224
glycan array binding signal (z-score) [10]: -0.205
glycan array binding signal (z-score) [11]: -0.15
glycan array binding signal (z-score) [12]: -0.191
glycan array binding signal (z-score) [13]: -0.134
glycan array binding signal (z-score) [14]: -0.06
glycan array binding signal (z-score) (Man(a1-3)[Man(a1-6)]Man): -0.224
glycan array binding signal (z-score) [15]: -0.192
glycan array binding signal (z-score) (Neu5Ac(a2-3)Gal): -0.165
glycan array binding signal (z-score) [16]: -0.16
glycan array binding signal (z-score) [17]: -0.033
glycan array binding signal (z-score) [18]: -0.18
glycan array binding signal (z-score) [19]: -0.221
glycan array binding signal (z-score) [20]: -0.111
glycan array binding signal (z-score) [21]: -0.095
glycan array binding signal (z-score) (Neu5Ac(a2-3)Gal(b1-4)Glc): -0.178
glycan array binding signal (z-score) [22]: -0.21
glycan array binding signal (z-score) [23]: -0.209
glycan array binding signal (z-score) [24]: -0.032
glycan array binding signal (z-score) [25]: 0.024
glycan array binding signal (z-score) [26]: -0.126
glycan array binding signal (z-score) [27]: -0.205
glycan array binding signal (z-score) [28]: 0.043
glycan array binding signal (z-score) [29]: 0.253
glycan array binding signal (z-score) [30]: 0.008
glycan array binding signal (z-score) [31]: -0.017
glycan array binding signal (z-score) (Neu5Ac(a2-3)GalNAc): -0.225
glycan array binding signal (z-score) [32]: -0.145
glycan array binding signal (z-score) [33]: -0.028
glycan array binding signal (z-score) [34]: -0.098
glycan array binding signal (z-score) (Neu5Ac(a2-6)Gal): -0.191
glycan array binding signal (z-score) (Neu5Ac(a2-6)Gal(b1-4)Glc): -0.174
glycan array binding signal (z-score) [35]: -0.165
glycan array binding signal (z-score) [36]: -0.197
glycan array binding signal (z-score) [37]: -0.029
glycan array binding signal (z-score) [38]: 0.1
glycan array binding signal (z-score) (Neu5Ac(a2-6)GalNAc): -0.015
glycan array binding signal (z-score) (Neu5Ac(a2-8)Neu5Ac): -0.139
glycan array binding signal (z-score) [39]: -0.078
glycan array binding signal (z-score) [40]: -0.133
glycan array binding signal (z-score) [41]: -0.108
glycan array binding signal (z-score) [42]: -0.163
glycan array binding signal (z-score) [43]: -0.079
glycan array binding signal (z-score) (Neu5Ac(b1-6)GalNAc): -0.185
glycan array binding signal (z-score) [44]: -0.177
glycan array binding signal (z-score) [45]: -0.154
glycan array binding signal (z-score) [46]: -0.168
glycan array binding signal (z-score) [47]: 0.421
glycan array binding signal (z-score) (Neu5Gc(a2-3)Gal(b1-4)Glc): -0.148
glycan array binding signal (z-score) [48]: -0.175
glycan array binding signal (z-score) [49]: -0.119
glycan array binding signal (z-score) [50]: -0.207
glycan array binding signal (z-score) (Neu5Gc(a2-6)GalNAc): -0.147
